Test results reported in PubChem BioAssay AID624296 (National Center for Advancing Translational Sciences (NCATS), 2012).
Among all 350,000 compounds or so, about 9,900 (2.8%) were called active. Inconclusive results, whose numbers are uncertain, are shown with a selection of clear calls. Calls come from the whole dose curve; as a rule, active = well fitted activation curve with a large enough effect; inconclusive = small, poorly fitted or top-dose-only effect; inactive = no such curve, though single readings can be large or run the other way. Potencies of inconclusive entries are left out as doubtful fits.

Assay: A quantitative high throughput screen for small molecules that induce DNA re-replication in MCF 10a normal breast cells. Note: nearly all actives have a fitted effect of over 50% in size.
Conditions: MCF 10A DNA re-replication, Hoechst nuclear intensity, 48 h; series mostly up to 46.1 µM
Potency is the fitted concentration of half-maximal effect; tags give direction and shape of the fitted curve.

| Structure (SMILES) | Potency |
| --- | --- |
| O=C(CCCC(=O)N(c1ccc(F)cc1)C(C(=O)NC1CCCC1)c1ccc(O)cc1)Nc1ccccn1 (configuration not stated) | inconclusive [activator, single point] |
| COc1ccc(/C=N/n2cnn(Cc3ccccc3Cl)c2=S)cc1OC | inconclusive [activator, full curve, poor fit] |
| CCC(CC)C(=O)Nc1ccc(Nc2ccccc2)cc1 | inactive |
| COc1cccc(C(=O)Oc2c(Br)cc(Br)cc2/C=N/NC(=O)c2cc(C)[nH]n2)c1 | inconclusive [activator, single point] |
| CC(NC(=O)Cc1cccs1)c1ccncc1 (configuration not stated) | inconclusive [activator, full curve, poor fit] |
| COc1cc(CC(=O)OCC(=O)c2c[nH]c3ccccc23)cc(OC)c1OC | inconclusive [activator, partial curve, poor fit] |
| O=C(NCc1ccc(Cl)cc1)C1CCN(c2cnccn2)CC1 | inconclusive [activator, single point] |
| COc1cc(/C=N\NS(=O)(=O)c2ccccc2)cc(OC)c1OC | inactive |
| CCN1CCN(c2cc(C)c3cc(NC(=O)CCC(=O)N4CCN(c5ccccc5OC)CC4)ccc3n2)CC1 | inconclusive [activator, single point] |
| Cc1cc(F)ccc1S(=O)(=O)Nc1ccccc1C(=O)Nc1ccccc1N1CCOCC1 | inconclusive [activator, full curve] |
| CCN(C(=O)COC(=O)c1oc2ccc(OC)cc2c1C)C1CCS(=O)(=O)C1 (configuration not stated) | inactive |
| O=C(NCC(c1ccco1)N1CCCC1)c1cccc(S(=O)(=O)Nc2ccc(Br)cc2)c1 (configuration not stated) | inconclusive [activator, partial curve, poor fit] |
| COc1cc(/C=C/C(=O)OCC(=O)c2ccc(OC(F)F)cc2)ccc1O | inconclusive [activator, full curve, poor fit] |
| COCCCn1c(=N)c(C(=O)NCC2CCCO2)cc2c(=O)n3ccccc3nc21 (configuration not stated) | active: 11.6 µM |
| Fc1ccc(CNC(=S)NCc2ccc(F)cc2)cc1 | inconclusive [activator, partial curve, poor fit] |
| CCOC(=O)c1c(NC(=O)C(=O)N/N=C/c2ccc(O)c(OC)c2)sc2c1CCCCC2 | inconclusive [activator, partial curve] |
| COC(=O)c1ccc(/C=N/NC(=S)NC(C)C)cc1 | inconclusive [activator, single point] |
| COc1ccc(/C=N/Nc2cc(C)nc3ccc(Br)cc23)cc1 | active: 11.6 µM |
| O=C(NCCC1=CCCCC1)C(=O)NCC(c1ccco1)N1CCN(c2ccccc2)CC1 (configuration not stated) | inconclusive [activator, single point] |
| CC(C)(C)c1ccc(S(=O)(=O)N2CCC(O)(c3ccc(Cl)cc3)CC2)cc1 | inconclusive [activator, single point] |
| Cc1occc1C(=O)n1nnc2ccccc21 | inconclusive [activator, single point] |

| Structure (SMILES) | Potency |
| --- | --- |
| CC1(C)CC(=O)C(/C=N/n2cnc3ccccc3c2=O)=C(O)C1 | inactive |
| Cc1sc2nc(CSCC(=O)Nc3ccc(OC(F)F)cc3)[nH]c(=O)c2c1C | inconclusive [activator, partial curve] |
| CC(C)COc1ccc(C(=O)Nc2ccc([N+](=O)[O-])cc2)cc1 | inactive |
| CCOc1nc2cccc(C(=O)O)c2n1Cc1ccc(-c2ccccc2-c2nn[nH]n2)cc1 | inconclusive [activator, single point] |
| Cc1ccc(S(=O)(=O)NCCNC(C)c2ccc(Br)cc2)cc1 (configuration not stated) | inactive |
| COc1cccc(N2C(=O)C(c3ccccc3)=C(c3nc4ccccc4s3)C2NC(C)=O)c1 (configuration not stated) | inconclusive [activator, partial curve, poor fit] |
| CCCCc1nnc(NC(=O)CCS(=O)(=O)c2ccc(C)cc2)s1 | inconclusive [activator, single point] |
| O=C(COc1ccc2ccccc2c1)Nc1cccc2cccnc12 | inconclusive [activator, single point] |
| CCCCCCc1cc2cc(C(=O)NC)c(=N)oc2cc1O | inconclusive [activator, partial curve] |
| Cc1ccc(C2=NN(C(=O)CCl)C(c3ccco3)C2)o1 (configuration not stated) | active: 20.6 µM |
| Cc1ccc(OCCn2cc(C=O)c3ccccc32)cc1 | inconclusive [activator, single point] |
| COc1ccc(-c2nn(-c3ccccc3)cc2/C=N/N2C(=O)CSC2=S)cc1 | inconclusive [activator, full curve] |
| CCc1nc(SCC(=O)Nc2cc(OC)ccc2OC)c2c(C)c(C)sc2n1 | inconclusive [activator, partial curve, poor fit] |
| COc1ccc([N+](=O)[O-])cc1NC(=O)C(C)NNC(=O)c1cccc([N+](=O)[O-])c1 (configuration not stated) | inactive |
| Cc1cc(C)c2sc(N(CCCN(C)C)C(=O)COc3ccc(Cl)cc3)nc2c1 | inconclusive [activator, single point] |
| CC(=O)c1ccc(N2CCN(C(=O)c3cc4c(s3)CCCC4)CC2)cc1 | inactive |
| COc1cc2[nH]c(C(=O)N3CC(C)OC(C)C3)cc2c(OC)c1OC (configuration not stated) | inconclusive [activator, partial curve, poor fit] |
| Cc1cc(C)c(C#N)c(SCc2ccc(F)cc2)n1 | inactive |
| CCc1ccc(CC)c(S(=O)(=O)Nc2ccc(C(=O)O)c(O)c2)c1 | inconclusive [activator, single point] |
| COc1ccc(OC)c(C(=O)c2coc3ccc(OC(C)=O)cc23)c1 | active: 20.6 µM |
| Cc1ccc(C(=O)OCC(=O)Nc2nc(-c3ccccc3)cs2)cc1NC(=O)c1ccco1 | inconclusive [activator, partial curve, poor fit] |
